# In PubChem BioAssay AID1476 (National Center for Advancing Translational Sciences (NCATS), 2009):
# “And” between values parts separate entries of the source, which are not always exact repeats. Identical values can stand only once. In all, about 200,000 compounds went through this assay and about 4,500 (2.2%) were called active. The inconclusive results got no clear call from the source; some entries with a clear call stand among them for comparison. The call rests on the fitted dose curve; in most records, active means well fitted inhibition curve with a large enough effect; inconclusive means small, poorly fitted or top-dose-only effect, or effect the other way; inactive means flat fitted curve, though single readings scatter. A potency beside an inconclusive call is a rough fit, not a confirmed value.
# Target: Cruzipain (Trypanosoma cruzi) (UniProt P25779)
# UniProt P25779, sequence (P25779 whole entry, looked up): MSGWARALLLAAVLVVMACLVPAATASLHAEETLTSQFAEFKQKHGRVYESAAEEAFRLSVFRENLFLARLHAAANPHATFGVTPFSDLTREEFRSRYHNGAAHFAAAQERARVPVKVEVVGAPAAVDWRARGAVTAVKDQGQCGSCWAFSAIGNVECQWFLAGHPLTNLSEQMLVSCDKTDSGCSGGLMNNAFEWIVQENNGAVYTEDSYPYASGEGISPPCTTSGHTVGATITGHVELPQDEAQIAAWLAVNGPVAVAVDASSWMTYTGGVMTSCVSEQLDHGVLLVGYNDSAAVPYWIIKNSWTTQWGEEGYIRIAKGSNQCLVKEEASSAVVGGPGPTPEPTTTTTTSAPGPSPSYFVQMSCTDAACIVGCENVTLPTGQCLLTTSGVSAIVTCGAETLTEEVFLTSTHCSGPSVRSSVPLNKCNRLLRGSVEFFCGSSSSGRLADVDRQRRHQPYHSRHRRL
# Test: qHTS Assay for Promiscuous and Specific Inhibitors of Cruzain (without detergent); further: nearly all actives have a fitted effect of over 40% in size;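 on max response, negative = inhibition: plate controls were enzyme without inhibitor for no effect and buffer without enzyme for full effect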
# Settings: purified cruzain, Z-FR-AMC fluorescence, no detergent
# Method in brief: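 Detergent-free condition (0.00005% Triton X-100) in acetate buffer pH 5.5 with DTT. 1.5 nM enzyme and compound were pre-mixed 15 min, then 2 uM Z-FR-AMC substrate added; reaction progress from fluorescence change between first and third reads (60 s).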
# Potency means the concentration at half of the fitted maximal effect; tags describe the fitted curve by direction and shape.
Structure (SMILES),"max response, negative = inhibition",Potency
CCCCOc1ccccc1C(=O)N(Cc1sccc1C)C1CCS(=O)(=O)C1 (stereo not drawn),inactive: -5.29%,
CCn1c(=O)cc(SCC(=O)Nc2ccc(OC)c(OC)c2)c2ccccc21,,"inconclusive: 31.6 µM [activator, single point]"
CN(C)N=C1c2cc(S(=O)(=O)N3CCOCC3)ccc2-c2ccc(S(=O)(=O)N3CCOCC3)cc21,,"inconclusive: 15.8 µM [activator, partial curve, poor fit]"
COc1ccc2nc(NC(=O)CN(c3ccc(C)cc3)S(=O)(=O)c3c(C)nn(C)c3C)sc2c1,,"inconclusive: 31.6 µM [activator, single point]"
COc1cccc(-c2csc(N3CCN(CC(=O)NNC(=O)c4ccc(Br)cc4)CC3)n2)c1,,"inconclusive: 31.6 µM [inhibitor, single point]"
c1ccc2c(c1)OCC(C1=NCCN1)O2 (stereo not drawn),inactive: -11.2% and inactive: 3.12%,
CCOc1ccccc1N1CC(c2nc3ccccc3n2CCCOc2ccc(OC)cc2)CC1=O (stereo not drawn),,"inconclusive: 31.6 µM [activator, partial curve]"
O=C(N1CCN(c2cccc(Cl)c2)CC1)C1(c2cccs2)CCOCC1,,"inconclusive: 31.6 µM [activator, single point]"
CCc1ccc(C(=O)CC2(O)C(=O)N(Cc3ccc(C)cc3)c3ccccc32)cc1 (stereo not drawn),,"inconclusive: 12.6 µM [inhibitor, partial curve]"
CCc1nnc(NC(=O)CSc2nnc(-c3ccc(S(=O)(=O)N4CCCC4)cc3)n2CC)s1,,"inconclusive: 39.8 µM [activator, single point]"
O=C(c1ccco1)N(Cc1cccs1)c1ccc(F)cc1,inactive: -10%,
Oc1c(C=C2N=c3ccccc3=N2)sc(=S)n1-c1ccccc1,,active: 10 µM
CN1CCN(C2=C(Cl)C(=O)N(c3ccc(Cl)cc3)C2=O)CC1,,active: 25.1 µM
Cc1cc(O)c(C(c2ccccc2)N2CCN(c3ccc(F)cc3)CC2)c(=O)n1Cc1ccco1 (stereo not drawn),,"inconclusive: 39.8 µM [inhibitor, single point]"
COCc1cc(C)nc(SCC(=O)Nc2cccc(C)c2)c1C#N,,"inconclusive: 31.6 µM [inhibitor, single point]"
Cc1ccc2occ(CC(=O)N(Cc3ccc(Cl)cc3)Cc3ccco3)c2c1,,"inconclusive: 39.8 µM [inhibitor, single point]"
O=C(NC(=S)NCc1ccc(-c2nc3ccccc3s2)cc1)c1ccco1,,"inconclusive: 39.8 µM [inhibitor, single point]"
O=c1cc(CO)oc(CN2CCC(Cc3ccccc3)CC2)c1O,inactive: -8.62%,
O=C(O)c1cnc(-c2ccccc2)nc1Sc1cccc(Cl)c1,,"inconclusive: 39.8 µM [activator, single point]"
Cc1ccc(-n2c(SCC(N)=O)nnc2-c2ccc(S(=O)(=O)N3CCCCC3)cc2)c(C)c1,,"inconclusive: 25.1 µM [activator, single point]"
COc1ccccc1S(=O)(=O)Cc1ccc(C(=O)N2CCN(c3cc(Cl)ccc3C)CC2)o1,,"inconclusive: 31.6 µM [activator, single point]"

Structure (SMILES),"max response, negative = inhibition",Potency
CCOC(=O)c1sc(NC(=O)c2cc(S(=O)(=O)N3CCOCC3)ccc2C)nc1C,,"inconclusive: 31.6 µM [activator, single point]"
Cc1onc(-c2c(Cl)cccc2Cl)c1C(=O)NC(=S)Nc1sc2c(c1C(N)=O)CCC(C)C2 (stereo not drawn),,active: 3.98 µM
COc1cccc(Cn2nnc3c(=O)[nH]c(C4CCCN(C(=O)c5ccccc5Cl)C4)nc32)c1 (stereo not drawn),,"inconclusive: 31.6 µM [activator, single point]"
Cc1cccc(N2CCN(C3=NC(=O)C(Cc4ccccc4)S3)CC2)c1 (stereo not drawn),inactive: -2.51%,
O=C1C(=C2CCCCC2)SC(=S)N1Cc1ccco1,,active: 15.8 µM
Cc1nc2cc(-c3cccc(F)c3)nn2c(C)c1CCC(=O)Nc1ccccc1C(N)=O,inactive: -6.99%,
Cc1ccc(C2CC(C(F)F)n3ncc(C(=O)Nc4c(C)nn(Cc5c(F)cccc5Cl)c4C)c3N2)cc1 (stereo not drawn),,"inconclusive: 12.6 µM [activator, partial curve]"
CCOC(=O)N1CCC(NC(=O)c2cc3c(-c4ccccc4F)nn(C)c3s2)CC1,,"inconclusive: 39.8 µM [activator, single point]"
CCN(CC)S(=O)(=O)c1cc(NS(=O)(=O)c2ccccc2)ccc1C,inactive: -2.98%,
Oc1ccc2ccccc2c1CN(Cc1c(O)ccc2ccccc12)C1CCCCC1,inactive: -11.5%,
C=Cc1ccc(Cn2c(C(=O)O)c(CNCCc3ccco3)c3ccc(C)cc32)cc1,,"inconclusive: 39.8 µM [activator, single point]"
N#Cc1cccc(-c2cncnc2-n2ccnc2)c1,inactive: -4.66%,
C=CCSc1nnc(NC(=O)CSc2nc(CCC)cc(=O)[nH]2)s1,,"inconclusive: 31.6 µM [inhibitor, single point]"
Cc1nnc(-c2ccc(Oc3ccc(C)c(C)c3)c([N+](=O)[O-])c2)o1,,"inconclusive: 31.6 µM [activator, single point]"
COc1ccc(OC)c(C=Nc2ccccc2-c2nc3ccccc3[nH]2)c1,,"inconclusive: 31.6 µM [activator, single point]"
C=CCn1c(-c2ccccc2)nc2nc3ccccc3nc21,,"inconclusive: 39.8 µM [inhibitor, single point]"
CCCc1nnc(NC(=O)CCC(=O)N2CCN(CCOC(c3ccccc3)c3ccccc3)CC2)s1,,"inconclusive: 20 µM [activator, partial curve]"
COc1ccc(-c2csc(NC(=O)C3CC(=O)N(c4ccc5c(c4)OCCO5)C3)n2)cc1 (stereo not drawn),,"inconclusive: 39.8 µM [inhibitor, single point]"
CCOc1ccccc1NC(=O)CSc1ncc2c(n1)-c1ccccc1N(CC)S2(=O)=O,,"inconclusive: 15.8 µM [inhibitor, partial curve, poor fit]"
O=C(NCc1ccccc1)NC1COc2ccccc2C1 (stereo not drawn),inactive: -9.1%,
CC1CCC(C(C)C)C(OC(=O)COC(=O)c2ccccc2N)C1 (stereo not drawn),,"inconclusive: 31.6 µM [inhibitor, single point]"

Structure (SMILES),"max response, negative = inhibition",Potency
COc1ccc(-c2nc(CSCC(=O)N3CCN(c4ccccc4F)CC3)c(C)o2)cc1,,"inconclusive: 39.8 µM [activator, single point]"
COc1ccc2c(c1)C(=O)[C@H](OC(=O)NCCOc1ccccc1)[C@@H](c1ccc(OC)c(Br)c1)O2,inactive: -14.4%,
COc1ccc(CNc2nc(NCc3ccc(OC)c(OC)c3)n(C(=O)c3cccs3)n2)cc1OC,,"inconclusive: 20 µM [activator, partial curve]"
COc1ccc(-c2cc(C(=O)NC(Cc3c[nH]c4ccccc34)C(=O)O)c(C)o2)cc1OC (stereo not drawn),,"inconclusive: 0.0316 µM [inhibitor, full curve, poor fit]"
CCN(C(=O)Cn1c(=O)oc2cc(S(=O)(=O)N3CCCCCC3)ccc21)c1cccc(C)c1,inactive: -0.639%,
Cc1ccc(S(=O)(=O)N2CCCCC2)cc1NC(=O)c1ccc2ccccc2n1,,"inconclusive: 31.6 µM [inhibitor, partial curve, poor fit]"
Cc1c(C)n(Cc2ccccc2)c2ccc(C(=O)N3CCN(c4ccccc4)CC3)cc12,,"inconclusive: 31.6 µM [inhibitor, single point]"
Cc1c(-c2nsc(NC(=O)c3cccs3)n2)nnn1-c1ccc(F)cc1,,"inconclusive: 7.94 µM [inhibitor, single point]"
O=C(NCCc1ccccc1)c1ccc2c(c1)nc1n2CCOC1,inactive: -15.2%,
O=C(CN1CCOCC1)Nc1nc(-c2ccc3c(c2)CCN3S(=O)(=O)c2ccccc2)cs1,,"inconclusive: 31.6 µM [activator, partial curve]"
CCOCCn1c(N2CCN(c3ccc(OC)cc3)CC2)nc2c1c(=O)n(C)c(=O)n2C,,"inconclusive: 39.8 µM [activator, single point]"
Cc1ccc(S(=O)(=O)Nc2cc(Cl)c3oc4c(c3c2)CCCC4)cc1,,"inconclusive: 5.01 µM [activator, full curve, poor fit]"
CCOC(=O)C1C(=O)CC(C)(O)C(C(=O)OCC)C1c1ccc(Br)cc1 (stereo not drawn),,"inconclusive: 39.8 µM [activator, single point]"
O=C(COc1ccccc1F)Nc1ccc2nc(SCC(=O)N3CCOCC3)sc2c1,,"inconclusive: 31.6 µM [activator, single point]"
O=S(=O)(c1ccccc1)c1nc(-c2ccc(F)cc2)oc1NCc1ccccc1,,"inconclusive: 39.8 µM [inhibitor, single point]"
Cc1cc(-c2nnc(-c3cc4ccccc4oc3=O)o2)c(C)n1-c1ccccc1,,"inconclusive: 15.8 µM [inhibitor, partial curve]"
CCN(CC)C(=O)C(C)N(C#N)c1nc(C)cc(C)n1 (stereo not drawn),inactive: -1.01%,
COc1ccc(C(=O)/C=C/c2cccs2)c(OC(=O)c2cccc([N+](=O)[O-])c2)c1,,"inconclusive: 39.8 µM [inhibitor, single point]"
CCS(=O)(=O)n1nc(-c2ccccc2)nc1SC,inactive: -5.92%,
CCOc1ccc(NC(=O)CSc2oc(-c3ccco3)nc2S(=O)(=O)c2ccccc2)cc1,inactive: 12.1%,
CN1CCN(c2ncc3nc(-c4cccc(C#N)c4)c(=O)n(CCc4ccccc4)c3n2)CC1,,"inconclusive: 15.8 µM [activator, partial curve]"
